# From PubChem BioAssay AID1745853 (National Center for Advancing Translational Sciences (NCATS), 2022)
# Where “and” joins values, the source holds several entries; their conditions need not be identical. Equal values may be shown once. The list shows a part of the results. These are further read-outs of the screen, such as a control signal, another cell line or another target. No call is given for them. Numbered stars: 1 amine (or outer) side, 2 acyl side, 3 side chain; on linkers, the order of the positions; unused ones are H or OH. Bridge positions count the residues as written; N and C are the ends. Square brackets hold non-standard residues; d marks the D form. Peptide text beside a SMILES is read from it. * marks the point of attachment. ξ: configuration not given here. ξhTyr(3S-OH,4S-OH,3'-OSO3H) = NC(C(=O)O)[C@H](O)[C@@H](O)c1ccc(O)c(OS(=O)(=O)O)c1; Orn(4R-OH,5R-OH) = O=C([C@H](C[C@@H](O)[C@@H](O)N[*:3])N[*:1])[*:2]; X6 = CCCCCOc1ccc(-c2cc(-c3ccc(C(=O)*)cc3)no2)cc1; X7 = C[C@H]1CN([*:1])C(C(=O)[*:2])[C@H]1O; ξGln(3R-OH) = NC(=O)C[C@@H](O)C(N)C(=O)O; ξPro(4R-OH) = O=C(O)C1C[C@@H](O)CN1; ξThr(3R) = C[C@@H](O)C(N)C(=O)O
# What was measured:
# Experiment in all cases: Primary Screen for Target Class Profiling of Small Molecule Inhibitors of Methyltransferases
# [1] = target: Glycine N-methyltransferase (Homo sapiens) (UniProt Q14749); conditions: purified enzyme, MTase-Glo SAH luminescence; measured here: GNMT inhibition; at 40 µM; stronger effect = lower value
# Outline: (§1)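 Each enzyme was reacted with SAM and its substrate, with compounds tested once at 40 uM; SAH formed was read by MTase-Glo luminescence.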
# [2] = target: Guanidinoacetate N-methyltransferase (Homo sapiens) (UniProt Q14353); conditions: purified enzyme, MTase-Glo SAH luminescence; measured here: GAMT inhibition; at 40 µM; stronger effect = lower value
# Outline: as §1
# [3] = target: Histamine N-methyltransferase (Homo sapiens) (UniProt P50135); conditions: purified enzyme, MTase-Glo SAH luminescence; measured here: HNMT inhibition; at 40 µM; stronger effect = lower value
# Outline: as §1
# [4] = target: Nicotinamide N-methyltransferase (Homo sapiens) (UniProt P40261); conditions: purified enzyme, MTase-Glo SAH luminescence; measured here: NNMT inhibition; at 40 µM; stronger effect = lower value
# Outline: as §1
# [5] = target: Phenylethanolamine N-methyltransferase (Homo sapiens) (UniProt P11086); conditions: purified enzyme, MTase-Glo SAH luminescence; measured here: PNMT inhibition; at 40 µM; stronger effect = lower value
# Outline: as §1
# % is scaled to controls: 0 for no effect and ±100 for the full control effect.
SMILES,"activity change, negative = inhibition [1]","activity change, negative = inhibition [2]","activity change, negative = inhibition [3]","activity change, negative = inhibition [4]","activity change, negative = inhibition [5]"
CN1Cc2ccc(C(=O)Nc3ccc4cn[nH]c4c3)cc2OCC1=O,-13.5%,-1.27%,-9.59%,-6.84%,-10.6%
N[S+](=O)([O-])c1ccc2c(c1)OCCN(Cc1ccccc1Cl)C2,-1.9%,-0.43%,0.146%,-21.7%,0.668%
CC(O)/C=C/C1OC(=O)CC1Nc1ccc(C(=O)O)cc1 (stereo not given),0%,5.71%,10.9%,-4.86%,-0.08%
COC(=O)C[C@H]1C(C)(C)[C@H](OC(C)=O)C2CC3=C4CC(=O)O[C@@H](c5ccoc5)[C@]4(C)CCC3[C@@]1(C)C2=O (stereo not given in full),0.933%,-1.85%,6.02%,-14.9%,-8.64%
CC(C)N(Cc1cccc(N2CCN(S(=O)(=O)c3c(Cl)cccc3Cl)CC2)c1F)S(C)(=O)=O,-2.45%,-3.89%,-2.27%,-4.6%,-4.01%
Cc1noc(C)c1-c1cnc(Nc2ccncc2)c2c1CCO2,-13.4%,-14.3%,-67.6%,-30.7%,-15.8%
COc1ccc(OC)c(CNC(=O)c2cc3n(n2)CC(C)(C(=O)NCc2ccccc2)N(C)C3=O)c1 (stereo not given),3.4%,4.12%,5.35%,2%,4.03%
"CCCCCOc1ccc(-c2cc(-c3ccc(C(=O)N[C@H]4C[C@@H](O)[C@@H](O)NC(=O)C5[C@@H](O)[C@@H](C)CN5C(=O)C([C@H](O)CC(N)=O)NC(=O)C([C@H](O)[C@@H](O)c5ccc(O)c(OS(=O)(=O)O)c5)NC(=O)C5C[C@@H](O)CN5C(=O)C([C@@H](C)O)NC4=O)cc3)no2)cc1 (stereo partly drawn) (X6-[Orn(4R-OH,5R-OH)][ξThr(3R)][ξPro(4R-OH)][ξhTyr(3S-OH,4S-OH,3'-OSO3H)][ξGln(3R-OH)][X7]; lactam 1-C)",2.55%,19.6%,5.94%,-8.43%,3.27%
COC(=O)C1=C(C)NC(C)=C(C(=O)OC)C1c1cccc(NC(=O)NCCCN2CCC(c3cccc(OC)c3)CC2)c1,-13.9% and -19.6%,5.11% and 6.37%,-38.5% and -50.8%,-15.8% and -34.8%,4.78% and 2.43%
CCCn1c(=O)c2ccc(C(=O)NCC(C)C)cc2n2c(SCC(=O)Nc3cccc(C)c3)nnc12,2.49%,0%,3.52%,-2.34%,1.7%
O=C(O)CCNc1cc(N2CCc3ccccc3CC2)nc(-c2ccccn2)n1,-2.06% and -5.17%,-4.94% and -12.7%,0.664% and -4.07%,-18.1% and -19.6%,-4.9% and -6.73%
Cc1nn(CCO)cc1CN1CCN(C(=O)c2cc[nH]c2)CC(O)C1 (stereo not given),-1.71%,-1.04%,0.324%,-1.61%,-0.303%
O=C(Cn1c(=O)c2ccc(Cl)cc2n2nncc12)NCc1ccc(F)cc1,1.09%,1.35%,7.82%,4.71%,0.456%
C=C1CCC2C(C)(C(=O)O)CCCC2(C)C1CCC1=CCOC1=O (stereo not given),3.74%,2.92%,9.37%,-9.26%,4.67%
Cc1cc(OCCCS(C)(=O)=O)cc(C)c1-c1cccc(COc2ccc(C3=CC(=O)NS3=O)cc2)c1 (stereo not given),-37.9%,12.8%,-8.26%,-43.2%,-0.192%
CC(=O)c1c(C)cccc1O[C@@H]1O[C@H](CO)[C@@H](O)[C@H](O)[C@H]1O,-0.051%,-2.56%,10.3%,-15.8%,-11.4%
COc1cccc(NC(=O)c2cc3n(n2)CC(C)(C(=O)NC2CCCCC2)N(C)C3=O)c1 (stereo not given),4.96%,0%,9.44%,10.5%,5.72%
CS(=O)(=O)N1CCN2C(=O)N(C3CCCCC3)C[C@H]2C1,-3.01%,-4.21%,-2.4%,-11.6%,-18.6%
OC1(Cn2ccnc2)CCN(Cc2ccccc2Cn2cccn2)CC1,0.389%,0.433%,-55.2%,-0.042%,-1.76%

SMILES,"activity change, negative = inhibition [1]","activity change, negative = inhibition [2]","activity change, negative = inhibition [3]","activity change, negative = inhibition [4]","activity change, negative = inhibition [5]"
Cn1c(=O)c2ccc(C(=O)NC3CCCC3)cc2n2c(=O)n(Cc3cccc(Cl)c3)nc12,2.71%,0%,2.55%,-0.137%,1.76%
C/C=C(/C)C(=O)OC1CC(C)(C)CC2C3=CCC4C5(C)CCC(OC6OC(C)C(OC7OC(C(=O)O)C(O)C(OC8OC(CO)C(O)C(O)C8OC8OC(CO)C(O)C(O)C8O)C7O)C(O)C6O)C(C)(C)C5CCC4(C)C3(C)C(OC(=O)/C=C/C=C/C=C/CCC)C(OC(C)=O)C12CO (stereo not given),0%,-6.26%,0.116%,-18.7%,3.28%
CCCCN1C(=O)c2cc3ccccc3n2CC1(C)C(=O)NC1CCCCCC1 (stereo not given),2.35%,1.92%,3.21%,-5.72%,-2.76%
COc1cccc(CN2CCC[C@@H](O)[C@H](NC(=O)c3ccc(OCc4ccccc4)cc3)C2)c1,-6.81%,-1.62%,-3.88%,-6.25%,-1.28%
CCn1c(=O)n(CC)c2cc(S(=O)(=O)Nc3ccc(F)cc3)ccc21,13.7%,2.38%,13.6%,1.67%,9.63%
O=C(N[C@H](Cc1cscn1)C(=O)N[C@@H](CC1CCCCC1)[C@@H](O)[C@@H](O)C1CC1)c1nc2ccccc2[nH]1,-8.65%,-11.4%,-9.27%,-23.1%,-11%
COc1cccc(CN2CCOC[C@H](O)C2)c1,-6.83%,-10.3%,-1.79%,-20.9%,-15.8%
COc1ccccc1OCCNC(=O)C1CCN(c2cc(C(F)(F)F)nc(C)n2)CC1,-1.66%,-5.65%,-2.66%,-5.84%,-8.61%
O=C(Cc1ccccc1)N1CCCC2(CC(c3cccc(C(F)(F)F)c3)=NO2)C1 (stereo not given),-7.16%,-1.24%,-0.959%,-10%,-3.03%
COc1cc(CN2CCN(c3noc(C(C)C)n3)CC2CCO)cc(OC)c1 (stereo not given),-3.62%,0.166%,1.03%,-26.9%,4.95%
COc1ccc(C(=O)NCc2cccnc2)cc1C(=O)NCc1cccnc1,3.56%,6.83%,5.79%,-6.69%,4.9%
CC(C)c1cccc(C(C)C)c1N1C(=O)c2ccc(O)cc2C1=O,1.34%,5.78%,3.02%,-5.77%,5.96%
CC1(C(=O)NCc2ccccc2)Cn2c(ccc2-c2ccco2)C(=O)N1c1ccc(Cl)cc1 (stereo not given),-11.7%,-1.05%,2.49%,-11.2%,-4%
COc1ccc(CNC(=O)C2(C)Cn3cnc(C(=O)NCc4ccccc4OC)c3C(=O)N2C2CC2)cc1 (stereo not given),0.935%,0.388%,13.7%,2.96%,7.93%
COc1ccccc1-c1cc(C(=O)N2CCOCC2)nn2cccc12,-5.05%,-4.72%,-2.83%,-8.8%,-3.02%
Cc1ccc(C)c(S(=O)(=O)c2nnn3c2nc(N2CCCC2)c2ccccc23)c1,-3.15%,0%,3.92%,-1.05%,-5.79%
CC(C)CCn1c(=O)c2ccc(C(=O)NC(C)C)cc2n2c(=O)n(CC(N)=O)nc12,0.097%,5.35%,-3.18%,2.87%,1.5%
CC1CCN(S(=O)(=O)c2ccc3c(ccn3CC(=O)NCCc3ccc(Cl)cc3)c2)CC1,-2.29%,-0.301%,-0.407%,-5.91%,-3.18%
COc1ccc2c(c1)CCc1c-2n[nH]c1C(=O)Nc1ccc2c(c1)C(=O)N(C)C1=NCCN12,-10.2%,2.6%,-5.49%,2.37%,1.44%

SMILES,"activity change, negative = inhibition [1]","activity change, negative = inhibition [2]","activity change, negative = inhibition [3]","activity change, negative = inhibition [4]","activity change, negative = inhibition [5]"
CCC(C)NC(=O)c1ccc2c(=O)n(Cc3ccccc3)c3nn(Cc4ccccc4C)c(=O)n3c2c1 (stereo not given),1.47%,0%,-0.459%,7.99%,2.45%
Cn1c(=O)n(C)c2cc(S(=O)(=O)Nc3ccccc3)c(Cl)cc21,-0.917%,4.28%,0.984%,6.91%,-2.33%
CCOC(=O)c1cccc(NC(=O)C2=CC(C)(C)Oc3ccc(OC)cc32)c1,-6.29%,-13.1%,-6.12%,-22.4%,-10.2%
CCOc1ccc(CN2C(=O)c3cc4ccc(OC)cc4n3CC2(C)C(=O)NC2CCCCC2)cc1 (stereo not given),4.28%,1.18%,1.31%,-0.499%,-2.44%
Cc1ccc(CNC(=O)N2CCn3cccc3C2Cc2ccccc2)cc1 (stereo not given),15.3%,0%,8.94%,6.6%,6.42%
CCOC(=O)c1cc2n(n1)CC(C)(C(=O)NCc1ccccc1)N(Cc1ccc(F)cc1)C2=O (stereo not given),-2.66%,-2.97%,2.36%,0.886%,-3.81%
O=C(Cc1ccccc1)NCC1CCCCC(=O)N1 (stereo not given),-1.7%,-1.73%,0.773%,-0.435%,1.01%
COc1cccc(C(=O)Nc2ccc(-c3ccc(OC)nn3)cc2)c1,-22.2%,-20.3%,-15%,-18.8%,-22.6%
Fc1ccccc1-c1noc(N2CCCCC2)n1,-32.8%,-37.3%,-32.5%,-42.5%,-47.3%
COC(=O)c1ncn2c1C(=O)N(Cc1ccccc1Br)C(C)(C(=O)NC1CCCC1)C2 (stereo not given),-1.18%,1.06%,-14.3%,-4.21%,-7.22%
O=C(Nc1ccc(Cl)cc1)Nc1cccc(-c2cccc(N3CCCC3)n2)c1,7.52%,-2.92%,3.57%,-14%,1.97%
C=C1C(=O)O[C@H]2CC(=C)[C@H]3CC[C@@](C)(O)[C@@H]3CC12 (stereo not given in full),-15.3%,-21.1%,-3.26%,-25.6%,-10.6%
CCCN(CCC)S(=O)(=O)c1ccc2[nH]c(=O)[nH]c2c1,-2.82%,2.69%,-6.18%,-7.42%,-17.6%
CC1CCC(NC(=O)C2(C)Cn3c(nc4ccccc43)C(=O)N2Cc2ccccc2Cl)CC1 (stereo not given),-0.17%,2.73%,-3.25%,-1.82%,-5.49%
COc1cccc(N2C(=O)c3cc4occc4n3CC2(C)C(=O)NC2CCCCC2)c1 (stereo not given),-8.15%,-6.85%,-5.25%,-3.4%,-6.04%
CCCN1C(=O)c2cc3ccccc3n2CC1(C)C(=O)NC1CCCCC1 (stereo not given),-1.45%,0.505%,1.31%,0.785%,-0.44%
COc1cc(/C=N\NC(=O)c2ccc3c(c2)OCO3)ccc1OCc1ccccc1,-3.27%,-6.14%,-81.1%,-31%,-11.1%
COc1ccccc1CNC(=O)C1c2c(n(C)c3ccccc23)SCC(=O)N1Cc1ccccc1Cl (stereo not given),14.5%,1.63%,5.9%,0.533%,5.49%
CCCCN1C(=O)c2ccccc2CC1(C)C(=O)NCc1ccc(Cl)cc1 (stereo not given),10.9%,0%,4.28%,4.56%,5.09%
